Each structure is given as a SMILES string. About 14,000 (4.5%) of roughly 310,000 compounds showed an effect of 50% or more. The effect is printed as a negative number. Some of the results follow.
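Further: peak tail current of the secondary pulse compared with the same well before compound.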

Chain of human ether-à-go-go-related gene (hERG) potassium channel (Q12809 whole entry, looked up): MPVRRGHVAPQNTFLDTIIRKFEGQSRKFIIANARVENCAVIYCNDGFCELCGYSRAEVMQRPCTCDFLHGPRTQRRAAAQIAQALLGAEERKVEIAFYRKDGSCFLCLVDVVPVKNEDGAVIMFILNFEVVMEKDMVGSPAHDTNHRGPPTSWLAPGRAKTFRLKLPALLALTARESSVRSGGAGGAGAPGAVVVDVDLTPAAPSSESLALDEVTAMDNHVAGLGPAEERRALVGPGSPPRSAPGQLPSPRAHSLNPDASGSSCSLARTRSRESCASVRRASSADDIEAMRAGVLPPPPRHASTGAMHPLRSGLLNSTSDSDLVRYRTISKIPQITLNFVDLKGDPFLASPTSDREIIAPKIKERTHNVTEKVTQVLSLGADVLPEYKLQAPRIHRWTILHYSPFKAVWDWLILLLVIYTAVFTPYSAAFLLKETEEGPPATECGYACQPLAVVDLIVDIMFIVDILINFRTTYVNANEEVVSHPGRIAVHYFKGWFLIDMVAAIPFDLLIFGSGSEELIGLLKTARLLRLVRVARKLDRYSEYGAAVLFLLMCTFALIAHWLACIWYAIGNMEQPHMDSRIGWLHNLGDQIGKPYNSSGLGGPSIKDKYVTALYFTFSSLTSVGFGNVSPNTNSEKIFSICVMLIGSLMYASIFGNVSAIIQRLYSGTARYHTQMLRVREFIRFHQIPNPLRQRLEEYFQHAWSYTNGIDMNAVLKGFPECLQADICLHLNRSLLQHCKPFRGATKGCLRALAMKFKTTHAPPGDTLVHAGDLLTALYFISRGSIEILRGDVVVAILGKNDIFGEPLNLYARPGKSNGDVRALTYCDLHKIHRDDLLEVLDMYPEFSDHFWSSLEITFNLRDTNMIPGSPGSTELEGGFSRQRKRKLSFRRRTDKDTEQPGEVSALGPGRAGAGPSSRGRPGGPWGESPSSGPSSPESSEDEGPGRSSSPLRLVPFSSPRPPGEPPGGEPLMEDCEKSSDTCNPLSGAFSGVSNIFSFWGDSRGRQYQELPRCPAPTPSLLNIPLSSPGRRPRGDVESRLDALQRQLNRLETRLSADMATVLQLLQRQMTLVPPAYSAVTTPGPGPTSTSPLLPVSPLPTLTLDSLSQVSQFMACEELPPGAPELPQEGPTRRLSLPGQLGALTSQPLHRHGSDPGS

This experiment addresses human ether-à-go-go-related gene (hERG) potassium channel (human, UniProt Q12809). Description: primary screen, population patch clamp on CHO cells stably expressing hERG.
With `COC(=O)C1=C(c2cccc(OC)c2OC)C[C@@H]2CC[C@H]1N2C(=O)NCCO`, the “hERG current change (%, negative = inhibition) at 10uM” value stood at 7.37%. Under `O=P(CCN1CCCCC1)(c1ccccc1)c1ccccc1` stands -5.98%. On to `CCC(=O)N(Cc1cc(=O)[nH]c2ccccc12)c1ccccc1`, for which the “hERG current change (%, negative = inhibition) at 10uM” value is given as 0.356%. Under `Cc1nn(-c2ccccn2)c2c1C(c1ccncc1)C1=C(CC(C)(C)CC1=O)N2` (centres unmarked) stands -50.8%. Next, `CS(=O)(=O)NCc1nnc2n1-c1ccc(Cl)cc1C(c1ccccc1)=NC2`: 6.2%; `CCOc1ccc(OCc2ccc(C(=O)NN)o2)cc1`: 3.42%. As to `CC(C)c1ccc(NC2CCCN(C(=O)CCCn3cncn3)C2)cc1` (centres unmarked), the “hERG current change (%, negative = inhibition) at 10uM” value is -37.5%. For the compound `O=C(NCCc1ccccc1)C1CCN(S(=O)(=O)N2CCCCC2)CC1`, the “hERG current change (%, negative = inhibition) at 10uM” value is given as 2.19%. Next, `C/C(=N/NS(=O)(=O)c1ccc(Br)cc1)c1ccc(NC(=O)c2ccc(C)o2)cc1`: 0.797%; `CCCN(CCC)CC(O)Cn1cc(/C=C/C(=O)c2cccs2)c2ccccc21` (centres unmarked): -30.7%; `FC(F)(F)c1cnc(NNC(=S)Nc2ccc(Cl)cc2)c(Cl)c1`: 6.05%. Next, `CCNc1ccc(C(=O)O)cc1N`: 9.77%; `COc1ccc(C2=NOC(COc3ccc4c(C)cc(=O)oc4c3)C2)c(OC)c1` (centres unmarked): -11%. Turning to `CC(=O)c1cccc(NC(=O)c2ccc(S(=O)(=O)N3CCCC3)cc2)c1`, the “hERG current change (%, negative = inhibition) at 10uM” value came out at 21.1%. Under `COc1ccc(NS(=O)(=O)c2c(F)cccc2F)cc1S(=O)(=O)N1CCOCC1` stands 6.82%; under `Cc1cccc(NC(NC(=O)c2cccnc2)C(Cl)(Cl)Cl)c1` (centres unmarked), -10.6%. In the case of `Cc1ccccc1-c1nc(CN2CCC(C(=O)NCCC3=CCCCC3)CC2)c(C)o1`, the “hERG current change (%, negative = inhibition) at 10uM” value was -66.7%. Next, `O=C1CC(N2CCOCC2)C(=O)N1CCc1ccccc1` (centres unmarked): 6.86%; `CCNC(=S)NC1CC2CCC(C1)N2Cc1ccccc1` (centres unmarked): -20.3%; `Cc1ccc(NC(=O)CSc2nc(N)cc(=O)[nH]2)cc1Cl`: 6.98%. Under `CCc1ccc(S(=O)(=O)Nc2ccccn2)cc1` stands -0.296%; under `CC(=O)N1CC(C)Sc2ccc(S(=O)(=O)NC3CCCCC3)cc21` (centres unmarked), 6.06%. `COc1ccc(S(=O)(=O)Nc2ccc(Cc3ccncc3)cc2)cc1C`: the “hERG current change (%, negative = inhibition) at 10uM” value is listed as -33%. Next, `CC1=CC(=C(C#N)C#N)c2ccccc2N1C`: -7.08%.

For the compound `O=C(NCCc1ccccn1)C1CCCN(S(=O)(=O)Cc2ccccc2)C1` (centres unmarked), the “hERG current change (%, negative = inhibition) at 10uM” value was found to be 9.26%. Next, `CCOc1ccc(NC(=O)c2ccc(NC(=S)NC3CC3)cc2)cc1`: 3.59%.

With `CC(Sc1nnnn1-c1cccc(F)c1)C(=O)NC1CCCC1` (centres unmarked), the “hERG current change (%, negative = inhibition) at 10uM” value is listed as -13.4%. Turning to `Cc1nc2ccccc2c(=O)n1/N=C/c1ccc(O)c(O)c1O`, the “hERG current change (%, negative = inhibition) at 10uM” value amounted to 1.4%. Next, `Cc1cc(OC(C)C(=O)NCc2ccccn2)c2c(C)c(C)c(=O)oc2c1` (centres unmarked): 8.8%; `C/C(=N\OCC(=O)Nn1c(=O)[nH]c2ccccc2c1=O)c1ccccc1`: 7.83%. Next, `CCn1c(C(=O)O)c(CC(=O)Nc2cccc(C(F)(F)F)c2)c2ccccc21`: 15.8%; `C/C(=N\NC(=S)NCc1ccccc1)c1ccc(Cl)s1`: 18%; `COc1cccc(NC(=O)Cn2cc(C=O)c3ccccc32)c1`: 18.4%.

For `CCC(C)c1ccccc1N1CC(C(=O)Nc2cccc(S(=O)(=O)N3CCOCC3)c2)CC1=O` (centres unmarked), the “hERG current change (%, negative = inhibition) at 10uM” value is recorded as -13.9%. Next, `CC(NC(=O)c1ccco1)C(=O)OCc1cccc(Cl)c1` (centres unmarked): -13.9%. Next, `Cc1occc1-c1nnc(SCC(N)=O)o1`: 13%.

On to `O=C(CSc1n[nH]c(-c2ccco2)n1)Nc1ccc(Br)cc1`, for which the “hERG current change (%, negative = inhibition) at 10uM” value amounted to 0.637%.

Turning to `CN1CCN(C(=O)CSc2nnc(COc3ccccc3)o2)CC1`, the “hERG current change (%, negative = inhibition) at 10uM” value was 7.53%. Under `COC(=O)c1nc2n(n1)C(c1ccc(OC)c(OC)c1OC)C1=C(CCCC1=O)N2` (centres unmarked) stands 5.21%; under `N#Cc1cc(C(=O)c2cc(Br)ccc2O)cn(C2CCCCC2)c1=O`, 7.25%; under `O=C(/C=C/c1ccc2c(c1)OCO2)NC1CCCC1`, 7.63%. Next, `COc1cccc(C2=NOC(C(=O)NCc3cccs3)C2)c1` (centres unmarked): 2.09%. Under `CCOc1ccc(CCN2C(=O)c3cccnc3C2=O)cc1OCC` stands 12.8%; under `Cn1nnc(NC(=S)NC(=O)c2ccccc2)n1`, -0.45%.

Source of the values: publication PMC4336329 (PLoS ONE, 2015).
